# In the supplement of paper PMC8728848:
# Some of the results follow.
# Legend:
# Experiment in all cases: glycan array binding signal (z-score within array); higher = stronger binding
# Conditions in all cases: glycan notation: IUPAC condensed, linker removed
# [1] = molecular target: Gal(b1-3)GlcNAc(b1-3)Gal(b1-4)Glc
# Outline: (§1)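 The binding signal is a Z-score computed within each array and averaged over linkers. Arrays of the same protein sequence at different concentrations or buffers were also averaged together. Data originate from 3228 arrays in the Consortium for Functional Glycomics database, kept only where the protein sequence was available.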
# [2] = molecular target: Gal(b1-3)GlcNAc(b1-3)Gal(b1-4)GlcNAc
# Outline: as §1
# [3] = molecular target: Gal(b1-3)GlcNAc(b1-3)Gal(b1-4)GlcNAc(b1-2)Man(a1-3)[Gal(b1-3)GlcNAc(b1-3)Gal(b1-4)GlcNAc(b1-2)Man(a1-6)]Man(b1-4)GlcNAc(b1-4)GlcNAc
# Outline: as §1
# [4] = molecular target: Gal(b1-3)GlcNAc(b1-3)Gal(b1-4)GlcNAc(b1-2)[Gal(b1-3)GlcNAc(b1-3)Gal(b1-4)GlcNAc(b1-6)]Man(a1-6)[Gal(b1-3)GlcNAc(b1-3)Gal(b1-4)GlcNAc(b1-2)Man(a1-3)]Man(b1-4)GlcNAc(b1-4)[Fuc(a1-6)]GlcNAc
# Outline: as §1
# [5] = molecular target: Gal(b1-3)GlcNAc(b1-3)Gal(b1-4)GlcNAc(b1-3)Gal(b1-4)GlcNAc(b1-2)[Gal(b1-3)GlcNAc(b1-3)Gal(b1-4)GlcNAc(b1-3)Gal(b1-4)GlcNAc(b1-6)]Man(a1-6)[Gal(b1-3)GlcNAc(b1-3)Gal(b1-4)GlcNAc(b1-3)Gal(b1-4)GlcNAc(b1-2)Man(a1-3)]Man(b1-4)GlcNAc(b1-4)[Fuc(a1-6)]GlcNAc
# Outline: as §1
# [6] = molecular target: Gal(b1-3)GlcNAc(b1-3)Gal(b1-4)GlcNAc(b1-6)[Gal(b1-3)GlcNAc(b1-3)]Gal(b1-4)Glc
# Outline: as §1
# [7] = molecular target: Gal(b1-3)GlcNAc(b1-3)Gal(b1-4)[Fuc(a1-3)]GlcNAc
# Outline: as §1
# [8] = molecular target: Gal(b1-3)GlcNAc(b1-3)Gal(b1-4)[Fuc(a1-3)]GlcNAc(b1-6)[Gal(b1-3)GlcNAc(b1-3)]Gal(b1-4)Glc
# Outline: as §1
# [9] = molecular target: Gal(b1-3)GlcNAc(b1-3)GalNAc
# Outline: as §1
# [10] = molecular target: Gal(b1-3)GlcNAc(b1-6)Gal(b1-4)GlcNAc
# Outline: as §1
# [11] = molecular target: Gal(b1-3)GlcNAc(b1-6)GalNAc
# Outline: as §1
# [12] = molecular target: Gal(b1-3)GlcNAc(b1-6)[Gal(b1-3)]GalNAc
# Outline: as §1
# Gal(b1-3)GlcNAc6S = molecular target: Gal(b1-3)GlcNAc6S
# Outline: as §1
# [13] = molecular target: Gal(b1-3)[Fuc(a1-4)]GlcNAc
# Outline: as §1
# [14] = molecular target: Gal(b1-3)[Fuc(a1-4)]GlcNAc(b1-2)Man
# Outline: as §1
# [15] = molecular target: Gal(b1-3)[Fuc(a1-4)]GlcNAc(b1-2)Man(a1-3)[Gal(b1-3)[Fuc(a1-4)]GlcNAc(b1-2)Man(a1-6)]Man(b1-4)GlcNAc(b1-4)[Fuc(a1-6)]GlcNAc
# Outline: as §1
# [16] = molecular target: Gal(b1-3)[Fuc(a1-4)]GlcNAc(b1-3)Gal(b1-3)[Fuc(a1-4)]GlcNAc
# Outline: as §1
# [17] = molecular target: Gal(b1-3)[Fuc(a1-4)]GlcNAc(b1-3)Gal(b1-4)GlcNAc
# Outline: as §1
# [18] = molecular target: Gal(b1-3)[Fuc(a1-4)]GlcNAc(b1-3)Gal(b1-4)[Fuc(a1-3)]GlcNAc
# Outline: as §1
# [19] = molecular target: Gal(b1-3)[Fuc(a1-4)]GlcNAc(b1-6)GalNAc
# Outline: as §1
# [20] = molecular target: Gal(b1-3)[GlcNAc(b1-6)]GalNAc
# Outline: as §1
# [21] = molecular target: Gal(b1-3)[GlcNAc(b1-6)]GlcNAc
# Outline: as §1
# [22] = molecular target: Gal(b1-3)[Neu5Ac(a2-6)]GalNAc
# Outline: as §1
# [23] = molecular target: Gal(b1-3)[Neu5Ac(a2-6)]GlcNAc
# Outline: as §1
# [24] = molecular target: Gal(b1-3)[Neu5Ac(a2-6)]GlcNAc(a1-4)Gal(b1-4)Glc
# Outline: as §1
# [25] = molecular target: Gal(b1-3)[Neu5Ac(a2-6)]GlcNAc(b1-4)Gal(b1-4)Glc
# Outline: as §1
# [26] = molecular target: Gal(b1-3)[Neu5Ac(a2-6)]GlcNAc(b1-6)Gal(b1-4)Glc
# Outline: as §1
# [27] = molecular target: Gal(b1-3)[Neu5Ac(b2-6)]GalNAc
# Outline: as §1
# [28] = molecular target: Gal(b1-3)[Neu5Ac(b2-6)]GlcNAc
# Outline: as §1
# Gal(b1-4)Gal = molecular target: Gal(b1-4)Gal
# Outline: as §1
# [29] = molecular target: Gal(b1-4)GalNAc(a1-3)[Fuc(a1-2)]Gal(b1-4)GlcNAc
# Outline: as §1
# [30] = molecular target: Gal(b1-4)GalNAc(b1-3)[Fuc(a1-2)]Gal(b1-4)GlcNAc
# Outline: as §1
# Gal(b1-4)Glc = molecular target: Gal(b1-4)Glc
# Outline: as §1
# Gal(b1-4)Glc6S = molecular target: Gal(b1-4)Glc6S
# Outline: as §1
# Gal(b1-4)GlcNAc = molecular target: Gal(b1-4)GlcNAc
# Outline: as §1
# [31] = molecular target: Gal(b1-4)GlcNAc(a1-6)Gal(b1-4)GlcNAc
# Outline: as §1
# Gal(b1-4)GlcNAc(b1-2)Man = molecular target: Gal(b1-4)GlcNAc(b1-2)Man
# Outline: as §1
# [32] = molecular target: Gal(b1-4)GlcNAc(b1-2)Man(a1-3)Man(b1-4)GlcNAc(b1-4)GlcNAc
# Outline: as §1
# [33] = molecular target: Gal(b1-4)GlcNAc(b1-2)Man(a1-3)[Gal(b1-4)GlcNAc(b1-2)Man(a1-6)]Man(b1-4)GlcNAc(b1-4)GlcNAc
# Outline: as §1
# [34] = molecular target: Gal(b1-4)GlcNAc(b1-2)Man(a1-3)[Gal(b1-4)GlcNAc(b1-2)Man(a1-6)]Man(b1-4)GlcNAc(b1-4)[Fuc(a1-6)]GlcNAc
# Outline: as §1
# [35] = molecular target: Gal(b1-4)GlcNAc(b1-2)Man(a1-3)[Gal(b1-4)GlcNAc(b1-2)Man(a1-6)][Gal(b1-4)GlcNAc(b1-4)]Man(b1-4)GlcNAc(b1-4)[Fuc(a1-6)]GlcNAc
# Outline: as §1
# [36] = molecular target: Gal(b1-4)GlcNAc(b1-2)Man(a1-3)[Gal(b1-4)GlcNAc(b1-2)Man(a1-6)][GlcNAc(b1-4)]Man(b1-4)GlcNAc(b1-4)[Fuc(a1-6)]GlcNAc
# Outline: as §1
# [37] = molecular target: Gal(b1-4)GlcNAc(b1-2)Man(a1-3)[Gal(b1-4)GlcNAc(b1-2)][GlcNAc(b1-4)]Man(b1-4)GlcNAc(b1-4)GlcNAc
# Outline: as §1
# [38] = molecular target: Gal(b1-4)GlcNAc(b1-2)Man(a1-3)[GlcNAc(b1-2)Man(a1-6)]Man(b1-4)GlcNAc(b1-4)GlcNAc
# Outline: as §1
# [39] = molecular target: Gal(b1-4)GlcNAc(b1-2)Man(a1-3)[GlcNAc(b1-4)][Gal(b1-4)GlcNAc(b1-2)Man(a1-6)]Man(b1-4)GlcNAc(b1-4)GlcNAc
# Outline: as §1
binder,measurement,setting,value
Gal 7 (Homo sapiens) (protein) MSNVPHKSSLPEGIRPGTVLRIRGLVPPNASRFHVNLLCGEEGGSDAALHFNPRLDTSEVVFNSKEGGSWGREERGPGVPFGRGQPFEVLIIASDDGFKAVVGDAQYHHFRHRLPLARVRLVEVGGDVQLDSVRIF,glycan array binding signal (z-score),[1],-0.166
same,glycan array binding signal (z-score),[2],-0.193
same,glycan array binding signal (z-score),[3],-0.199
same,glycan array binding signal (z-score),[4],0.02
same,glycan array binding signal (z-score),[5],0.186
same,glycan array binding signal (z-score),[6],-0.216
same,glycan array binding signal (z-score),[7],-0.245
same,glycan array binding signal (z-score),[8],-0.256
same,glycan array binding signal (z-score),[9],0.04
same,glycan array binding signal (z-score),[10],-0.33
same,glycan array binding signal (z-score),[11],-0.164
same,glycan array binding signal (z-score),[12],-0.261
same,glycan array binding signal (z-score),Gal(b1-3)GlcNAc6S,-0.108
same,glycan array binding signal (z-score),[13],-0.24
same,glycan array binding signal (z-score),[14],-0.213
same,glycan array binding signal (z-score),[15],0.341
same,glycan array binding signal (z-score),[16],-0.178
same,glycan array binding signal (z-score),[17],0.808
same,glycan array binding signal (z-score),[18],-0.289
same,glycan array binding signal (z-score),[19],-0.063
same,glycan array binding signal (z-score),[20],-0.314
same,glycan array binding signal (z-score),[21],-0.377
same,glycan array binding signal (z-score),[22],-0.266
same,glycan array binding signal (z-score),[23],-0.32
same,glycan array binding signal (z-score),[24],0.731
same,glycan array binding signal (z-score),[25],-0.3
same,glycan array binding signal (z-score),[26],-0.351
same,glycan array binding signal (z-score),[27],-0.34
same,glycan array binding signal (z-score),[28],-0.384
same,glycan array binding signal (z-score),Gal(b1-4)Gal,-0.214
same,glycan array binding signal (z-score),[29],-0.35
same,glycan array binding signal (z-score),[30],-0.367
same,glycan array binding signal (z-score),Gal(b1-4)Glc,0.167
same,glycan array binding signal (z-score),Gal(b1-4)Glc6S,0.576
same,glycan array binding signal (z-score),Gal(b1-4)GlcNAc,-0.218
same,glycan array binding signal (z-score),[31],-0.285
same,glycan array binding signal (z-score),Gal(b1-4)GlcNAc(b1-2)Man,-0.139
same,glycan array binding signal (z-score),[32],-0.314
same,glycan array binding signal (z-score),[33],0.369
same,glycan array binding signal (z-score),[34],-0.017
same,glycan array binding signal (z-score),[35],-0.263
same,glycan array binding signal (z-score),[36],-0.265
same,glycan array binding signal (z-score),[37],0.272
same,glycan array binding signal (z-score),[38],-0.265
same,glycan array binding signal (z-score),[39],-0.275
